The list shows a part of the results. The list includes weakly bound sequences.

The experiment deals with T1, MBP-FoxP3dN (UniProt Q99JB6).
T1 sequence: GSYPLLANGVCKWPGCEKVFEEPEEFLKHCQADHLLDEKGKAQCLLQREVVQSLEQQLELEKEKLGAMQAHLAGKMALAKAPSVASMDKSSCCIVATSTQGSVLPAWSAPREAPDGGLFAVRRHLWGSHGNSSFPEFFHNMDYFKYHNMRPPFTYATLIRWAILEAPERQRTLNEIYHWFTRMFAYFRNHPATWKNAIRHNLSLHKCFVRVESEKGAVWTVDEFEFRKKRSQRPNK
Put plainly: PD-seq (MBP pull-down with sequencing). The settings on record: 20 mM Tris-HCl pH 7.5, 100 mM NaCl, 1.5 mM MgCl2, 0.4 uM protein, 0.1 uM dsDNA library, 30 min, room temperature, amylose pull-down; high values mean tight binding; double strand, one strand shown.
As for “GATGATTGTTCTCCCAGCTGATGAATTAGATATATCGAGTAAACAAATTTTCCTAATCTTTCTGTTCAAGCGCCATCTAC”, the binding signal (RPM ratio (pull-down/input)) was 0.752.

“GATGATTGTTCTCCCAGCTGATGAATTGGGGTCCTCGAGTAAACAAATTTTCCTAATCTTTCTGTTCAAGCGCCATCTAC”: the binding signal (RPM ratio (pull-down/input)) was 0.484.

Consider “GATGATTGTTCTCCCAGCTGATGAATTCTCTCGGTCGAGTAAACAAATTTTCCTAATCTTTCTGTTCAAGCGCCATCTAC”, for which the binding signal (RPM ratio (pull-down/input)) came to 0.2.

Turning to “GATGATTGTTCTCCCAGCTGATGAATTCACCTTATCGAGTAAACAAATTTTCCTAATCTTTCTGTTCAAGCGCCATCTAC”, the binding signal (RPM ratio (pull-down/input)) stood at 0.363.

As for “GATGATTGTTCTCCCAGCTGATGAATTTTGCTCCTCGAGTAAACAAATTTTCCTAATCTTTCTGTTCAAGCGCCATCTAC”, the binding signal (RPM ratio (pull-down/input)) was 0.935.

Take “GATGATTGTTCTCCCAGCTGATGAATTACATAGCTCGAGTAAACAAATTTTCCTAATCTTTCTGTTCAAGCGCCATCTAC”: the binding signal (RPM ratio (pull-down/input)) amounted to 0.46.

On to “GATGATTGTTCTCCCAGCTGATGAATTCTCTGCTTCGAGTAAACAAATTTTCCTAATCTTTCTGTTCAAGCGCCATCTAC”, for which the binding signal (RPM ratio (pull-down/input)) amounted to 0.262.

Turning to “GATGATTGTTCTCCCAGCTGATGAATTTCGCGTTTCGAGTAAACAAATTTTCCTAATCTTTCTGTTCAAGCGCCATCTAC”, the binding signal (RPM ratio (pull-down/input)) amounted to 3.42.

In the case of “GATGATTGTTCTCCCAGCTGATGAATTCAAAGTATCGAGTAAACAAATTTTCCTAATCTTTCTGTTCAAGCGCCATCTAC”, the binding signal (RPM ratio (pull-down/input)) was 0.392.

For “GATGATTGTTCTCCCAGCTGATGAATTCCGTACGTCGAGTAAACAAATTTTCCTAATCTTTCTGTTCAAGCGCCATCTAC”, the binding signal (RPM ratio (pull-down/input)) turned out to be 0.509.

Consider “GATGATTGTTCTCCCAGCTGATGAATTTTACTTGTCGAGTAAACAAATTTTCCTAATCTTTCTGTTCAAGCGCCATCTAC”, for which the binding signal (RPM ratio (pull-down/input)) was determined as 0.939.

For the sequence “GATGATTGTTCTCCCAGCTGATGAATTGGAAAATTCGAGTAAACAAATTTTCCTAATCTTTCTGTTCAAGCGCCATCTAC”, the binding signal (RPM ratio (pull-down/input)) amounted to 0.195.

Turning to “GATGATTGTTCTCCCAGCTGATGAATTGGGATTGTCGAGTAAACAAATTTTCCTAATCTTTCTGTTCAAGCGCCATCTAC”, the binding signal (RPM ratio (pull-down/input)) was 0.945.

As to “GATGATTGTTCTCCCAGCTGATGAATTCCGACAGTCGAGTAAACAAATTTTCCTAATCTTTCTGTTCAAGCGCCATCTAC”, the binding signal (RPM ratio (pull-down/input)) stood at 0.417.

As to “GATGATTGTTCTCCCAGCTGATGAATTGGGCGGCTCGAGTAAACAAATTTTCCTAATCTTTCTGTTCAAGCGCCATCTAC”, the binding signal (RPM ratio (pull-down/input)) was 0.525.

For “GATGATTGTTCTCCCAGCTGATGAATTTCTTCTCTCGAGTAAACAAATTTTCCTAATCTTTCTGTTCAAGCGCCATCTAC”, the binding signal (RPM ratio (pull-down/input)) is 0.215.

In the case of “GATGATTGTTCTCCCAGCTGATGAATTCTGTCATTCGAGTAAACAAATTTTCCTAATCTTTCTGTTCAAGCGCCATCTAC”, the binding signal (RPM ratio (pull-down/input)) is 4.31.

Consider “GATGATTGTTCTCCCAGCTGATGAATTGCGGGGTTCGAGTAAACAAATTTTCCTAATCTTTCTGTTCAAGCGCCATCTAC”, for which the binding signal (RPM ratio (pull-down/input)) was 0.842.

Regarding “GATGATTGTTCTCCCAGCTGATGAATTTAGGGCGTCGAGTAAACAAATTTTCCTAATCTTTCTGTTCAAGCGCCATCTAC”, the binding signal (RPM ratio (pull-down/input)) turned out to be 0.604.

As to “GATGATTGTTCTCCCAGCTGATGAATTAGTATATTCGAGTAAACAAATTTTCCTAATCTTTCTGTTCAAGCGCCATCTAC”, the binding signal (RPM ratio (pull-down/input)) is 3.75.

As to “GATGATTGTTCTCCCAGCTGATGAATTATTATATTCGAGTAAACAAATTTTCCTAATCTTTCTGTTCAAGCGCCATCTAC”, the binding signal (RPM ratio (pull-down/input)) is 0.647.

Take “GATGATTGTTCTCCCAGCTGATGAATTTATAAATTCGAGTAAACAAATTTTCCTAATCTTTCTGTTCAAGCGCCATCTAC”: the binding signal (RPM ratio (pull-down/input)) came to 0.429.

“GATGATTGTTCTCCCAGCTGATGAATTGAAACAATCGAGTAAACAAATTTTCCTAATCTTTCTGTTCAAGCGCCATCTAC”: the binding signal (RPM ratio (pull-down/input)) worked out at 1.2.

For the sequence “GATGATTGTTCTCCCAGCTGATGAATTCAGTGATTCGAGTAAACAAATTTTCCTAATCTTTCTGTTCAAGCGCCATCTAC”, the binding signal (RPM ratio (pull-down/input)) stood at 1.26.

Turning to “GATGATTGTTCTCCCAGCTGATGAATTTACCTGGTCGAGTAAACAAATTTTCCTAATCTTTCTGTTCAAGCGCCATCTAC”, the binding signal (RPM ratio (pull-down/input)) stood at 0.329.

Turning to “GATGATTGTTCTCCCAGCTGATGAATTCTCAACATCGAGTAAACAAATTTTCCTAATCTTTCTGTTCAAGCGCCATCTAC”, the binding signal (RPM ratio (pull-down/input)) worked out at 0.466.

“GATGATTGTTCTCCCAGCTGATGAATTGTCCGAGTCGAGTAAACAAATTTTCCTAATCTTTCTGTTCAAGCGCCATCTAC”: the binding signal (RPM ratio (pull-down/input)) is 0.223.

Turning to “GATGATTGTTCTCCCAGCTGATGAATTCGCTGTATCGAGTAAACAAATTTTCCTAATCTTTCTGTTCAAGCGCCATCTAC”, the binding signal (RPM ratio (pull-down/input)) stood at 1.1.

In the case of “GATGATTGTTCTCCCAGCTGATGAATTAAGGCTTTCGAGTAAACAAATTTTCCTAATCTTTCTGTTCAAGCGCCATCTAC”, the binding signal (RPM ratio (pull-down/input)) came to 1.08.

As for “GATGATTGTTCTCCCAGCTGATGAATTAGACGTCTCGAGTAAACAAATTTTCCTAATCTTTCTGTTCAAGCGCCATCTAC”, the binding signal (RPM ratio (pull-down/input)) worked out at 0.536.

As to “GATGATTGTTCTCCCAGCTGATGAATTATAGGAGTCGAGTAAACAAATTTTCCTAATCTTTCTGTTCAAGCGCCATCTAC”, the binding signal (RPM ratio (pull-down/input)) amounted to 0.248.

Values taken from PMC12820563.
